# In the supplement of paper PMC3334620:
# Whole data set: some 33,000 sequences, median “E-score (-0.5 to 0.5)” near -0.012, cut for the highest 2% near 0.27. Some of the results follow.
# Target: T1, Vhr1 (UniProt P40522)
# T1 sequence: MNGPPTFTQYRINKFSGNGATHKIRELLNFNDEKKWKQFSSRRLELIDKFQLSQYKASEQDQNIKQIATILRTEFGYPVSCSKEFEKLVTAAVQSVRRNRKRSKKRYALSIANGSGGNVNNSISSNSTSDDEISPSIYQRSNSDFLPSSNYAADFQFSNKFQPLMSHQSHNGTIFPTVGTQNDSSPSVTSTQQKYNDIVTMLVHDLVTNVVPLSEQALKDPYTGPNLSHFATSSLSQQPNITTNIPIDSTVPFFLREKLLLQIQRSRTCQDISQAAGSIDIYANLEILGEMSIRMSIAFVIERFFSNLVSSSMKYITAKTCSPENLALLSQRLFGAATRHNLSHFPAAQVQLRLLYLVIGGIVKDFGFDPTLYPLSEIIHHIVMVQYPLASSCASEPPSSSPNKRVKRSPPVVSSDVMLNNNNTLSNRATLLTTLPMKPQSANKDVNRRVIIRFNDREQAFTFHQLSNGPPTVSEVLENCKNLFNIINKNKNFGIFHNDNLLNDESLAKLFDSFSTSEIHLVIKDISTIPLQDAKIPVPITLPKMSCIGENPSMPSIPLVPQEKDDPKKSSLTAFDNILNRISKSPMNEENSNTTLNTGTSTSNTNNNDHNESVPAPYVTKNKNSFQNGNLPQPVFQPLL
# Experiment: PBM E-score (8-mer binding enrichment) (E-score (-0.5 to 0.5)); higher = stronger / more preferred TF binding; most listed sequences are background and not binding sites
# Conditions: protein concentration: 200 nM; construct: GST-full length
# Method in brief: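 Universal all-10-mer Agilent arrays, fresh or stripped once, were converted to double-stranded form by primer extension. GST-tagged yeast transcription factors from PURExpress in vitro transcription/translation, full-length or DNA-binding domain only, were applied at about 100-200 nM and detected with fluorescent anti-GST. After masliner normalisation, the Universal PBM Analysis Suite scored each ungapped eight-base word together with its reverse complement by E-score.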
row,Sequence,PBM E-score
1,AACTGTGC,-0.135
2,GTGCACTA,0.0224
3,AAGGAAGG,-0.209
4,GCTGTCAA,-0.125
5,TCAGAACA,0.00034
6,CACTAGTC,0.12
7,CCCACGGG,-0.00586
8,ACCAGTGC,-0.193
9,AAGTGAGT,0.171
10,CGGTAAGA,-0.211
11,TAAGTATA,0.0666
12,ATAGACCA,0.0646
13,TCCCCAGA,-0.109
14,ATCACCGA,0.107
15,GCGAGTAA,0.2
16,CATTGCGC,0.0481
17,GGCACCAC,-0.0489
18,AATTCCCT,-0.19
19,AACACACC,0.27
20,ATATTGCC,-0.0289
21,ACAAAGTA,0.0223
22,AGTACATC,0.0779
23,AGGCGCCC,-0.173
24,CGACAGTA,0.0703
25,AGTAATAC,0.0646

row,Sequence,PBM E-score
1,AAAGTAAC,-0.04
2,ACCTCTAG,-0.0496
3,AGTGAATA,0.00606
4,GGCGCAAC,-0.0634
5,ACGCCCAA,0.107
6,CGGCTGGA,0.0242
7,CATCAAAC,0.0574
8,GGGTTGGA,-0.0905
9,CAGTGGGA,0.163
10,AGTAAGAT,0.00823
11,AACTCTCA,-0.222
12,CTCCTGGC,0.00698
13,GACTGGAA,-0.13
14,CCCACAAA,0.205
15,CTTACGGA,-0.244
16,CGGAGAAG,-0.0574
17,AAATAGTG,-0.149
18,AGGGCAGA,0.0882
19,ACCCTGGA,-0.0995
20,TCTACCAA,-0.114
21,ATCGAGCG,-0.0419
22,CCCTGTCA,-0.0257
23,GGTTGTTA,0.163
24,CGAACCAG,0.0659
25,AATGCAAT,-0.256

row,Sequence,PBM E-score
1,AATCGGAT,-0.0499
2,CCAGTCGA,0.0785
3,GGGAACGA,0.051
4,AGTCTTCG,0.138
5,GATCTACA,-0.016
6,ACAGACCT,0.113
7,ACGGTTGA,0.0296
8,AGTACCCG,0.0333
9,AAAATTCA,-0.128
10,CAAAGGTC,-0.211
11,CACTGCGA,-0.086
12,ACGTGCTA,-0.192
13,CTTCTCAA,-0.0692
14,GTAATGAC,0.0749
15,GTTTTACA,-0.0714
16,CTCTATTC,-0.146
17,ATCCACGC,-0.162
18,GCATCGGC,0.0389
19,GGCGGAGA,0.0701
20,GTCTAAGA,0.00684
21,GTAGGTTA,0.0409
22,CTGGGTTC,0.0965
23,AGGAGACA,0.058
24,GTAAGAGA,-0.242
25,ACCTTTAT,-0.21

row,Sequence,PBM E-score
1,GCGTACCC,-0.107
2,CAATTCGC,0.00462
3,CTCTAGCC,-0.167
4,ATCCAGGC,0.0317
5,GGAAGCCC,-0.111
6,CGCGTTGA,0.0186
7,CCGAAGAC,0.0787
8,CGATATAC,0.0742
9,GGTCCCTA,-0.0992
10,ACCGGAGA,0.26
11,GCCCTCAA,-0.378
12,CTGTCGTA,-0.11
13,CTCGCCGC,0.0777
14,CGTAGAGA,-0.127
15,AACCCGAG,-0.0167
16,AAAAAGAT,-0.155
17,CTCCCCGC,0.325
18,AGGAAGTA,-0.051
19,AACATGCG,0.105
20,CCTAACGA,-0.106
21,GTTCCGTA,0.0278
22,ACTAGAAG,-0.225
23,AGGATGCG,-0.0107
24,CGGCTAAA,0.0957
25,GACGCGTC,-0.146

row,Sequence,PBM E-score
1,AAACACTA,0.0776
2,GTATACCA,0.195
3,AAAAGGGA,-0.186
4,ACGCATCA,0.11
5,CAGTTGAA,-0.098
6,ACTGTAAC,0.107
7,AAGTAGCG,-0.207
8,CGGTCAAG,-0.154
9,GGCCCCGA,-0.136
10,GAACCAGA,-0.219
11,AGATAGAG,-0.0614
12,CAAGTTCC,-0.216
13,TGTTTGAA,-0.0523
14,AGAATTCG,-0.0154
15,GGGGGTCA,-0.104
16,ACGTGGTG,-0.0713
17,AGTTTTAC,-0.0563
18,CTTGACCA,-0.0241
19,CGCGTTGC,0.00751
20,ATGGCACC,-0.0976
21,CGGGTGCC,-0.154
22,GTCCAAAC,-0.0771
23,AACAGAGG,-0.0546
24,ACTCACAC,0.39
25,ATAAAGCG,-0.091

row,Sequence,PBM E-score
1,AGTTCGCG,0.105
2,AAGCAACA,0.0226
3,CAGGGTGC,-0.0301
4,CCGTCCGC,-0.151
5,GATGAGAA,-0.147
6,GTACCATA,0.0957
7,AGAGGTTG,-0.0584
8,AAATAGAC,-0.0687
9,CGTACGTC,-0.193
10,CCCCGAGG,-0.0327
11,CGGTTAGA,-0.0685
12,AACGCCCG,-0.132
13,CATGAAGC,-0.0411
14,ACGTTCTG,0.0673
15,ACATTGCA,0.138
16,ATCCGCAT,0.152
17,CTAGAACC,-0.117
18,GGGCCGAA,-0.0658
19,AAACTTGT,-0.0432
20,CGATCTCA,-0.00966
21,GGCTCCAC,-0.0342
22,GCGAGGAA,-0.0293
23,TATGTTGA,0.0315
24,CCAGGACA,-0.0732
25,GACGTCCA,-0.174

row,Sequence,PBM E-score
1,GATGGTCC,-0.126
2,ACGCAATA,0.118
3,GCTCGAAC,-0.0737
4,AGTCAAGG,0.196
5,ACACTTAC,-0.0548
6,GGGTTCAC,0.0756
7,ATGCTGTA,-0.145
8,GAGTATCC,0.00445
9,CATAGACC,0.0504
10,GGGATCTA,-0.00565
11,CTAACAGC,0.0375
12,TCGTCCCA,-0.028
13,ATAGCCGA,-0.00472
14,AACGCAGT,-0.0303
15,ATTTGTAA,0.189
16,CAGCCCTA,-0.0088
17,AATATATA,0.157
18,ACCACCAA,-0.0777
19,ATGTGAAA,-0.115
20,AAGTGCTC,-0.163
21,CTCAGTGA,0.111
22,GCTGTAGA,-0.128
